Here are results for four molecules from article PMC11628322.

The chains behind the UniProt entries cited, without tags or fusion partners. Residues count along the entry.
UniProt P30530, residues 26-894: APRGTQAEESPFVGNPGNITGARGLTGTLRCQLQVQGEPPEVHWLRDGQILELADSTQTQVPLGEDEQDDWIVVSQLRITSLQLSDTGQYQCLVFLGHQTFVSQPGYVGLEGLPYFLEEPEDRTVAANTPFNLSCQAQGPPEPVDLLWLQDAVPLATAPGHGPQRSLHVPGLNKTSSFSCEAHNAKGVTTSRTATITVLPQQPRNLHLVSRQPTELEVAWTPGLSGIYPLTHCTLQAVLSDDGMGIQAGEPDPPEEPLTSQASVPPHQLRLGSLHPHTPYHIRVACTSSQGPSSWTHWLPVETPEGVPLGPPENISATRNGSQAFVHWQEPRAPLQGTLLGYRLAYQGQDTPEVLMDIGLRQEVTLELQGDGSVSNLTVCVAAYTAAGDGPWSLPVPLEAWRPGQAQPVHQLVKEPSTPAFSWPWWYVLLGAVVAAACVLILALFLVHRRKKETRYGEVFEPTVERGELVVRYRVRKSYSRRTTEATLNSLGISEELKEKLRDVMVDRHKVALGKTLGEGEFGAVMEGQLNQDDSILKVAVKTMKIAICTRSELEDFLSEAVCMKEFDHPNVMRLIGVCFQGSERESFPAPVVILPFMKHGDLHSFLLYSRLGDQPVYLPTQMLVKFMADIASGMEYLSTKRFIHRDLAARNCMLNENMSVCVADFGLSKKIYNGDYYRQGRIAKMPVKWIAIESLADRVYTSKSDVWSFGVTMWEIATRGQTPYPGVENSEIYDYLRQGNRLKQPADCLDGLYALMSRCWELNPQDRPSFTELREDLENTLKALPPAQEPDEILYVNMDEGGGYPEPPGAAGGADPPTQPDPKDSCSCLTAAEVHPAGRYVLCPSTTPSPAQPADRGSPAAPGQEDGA
UniProt P08581, residues 25-1390: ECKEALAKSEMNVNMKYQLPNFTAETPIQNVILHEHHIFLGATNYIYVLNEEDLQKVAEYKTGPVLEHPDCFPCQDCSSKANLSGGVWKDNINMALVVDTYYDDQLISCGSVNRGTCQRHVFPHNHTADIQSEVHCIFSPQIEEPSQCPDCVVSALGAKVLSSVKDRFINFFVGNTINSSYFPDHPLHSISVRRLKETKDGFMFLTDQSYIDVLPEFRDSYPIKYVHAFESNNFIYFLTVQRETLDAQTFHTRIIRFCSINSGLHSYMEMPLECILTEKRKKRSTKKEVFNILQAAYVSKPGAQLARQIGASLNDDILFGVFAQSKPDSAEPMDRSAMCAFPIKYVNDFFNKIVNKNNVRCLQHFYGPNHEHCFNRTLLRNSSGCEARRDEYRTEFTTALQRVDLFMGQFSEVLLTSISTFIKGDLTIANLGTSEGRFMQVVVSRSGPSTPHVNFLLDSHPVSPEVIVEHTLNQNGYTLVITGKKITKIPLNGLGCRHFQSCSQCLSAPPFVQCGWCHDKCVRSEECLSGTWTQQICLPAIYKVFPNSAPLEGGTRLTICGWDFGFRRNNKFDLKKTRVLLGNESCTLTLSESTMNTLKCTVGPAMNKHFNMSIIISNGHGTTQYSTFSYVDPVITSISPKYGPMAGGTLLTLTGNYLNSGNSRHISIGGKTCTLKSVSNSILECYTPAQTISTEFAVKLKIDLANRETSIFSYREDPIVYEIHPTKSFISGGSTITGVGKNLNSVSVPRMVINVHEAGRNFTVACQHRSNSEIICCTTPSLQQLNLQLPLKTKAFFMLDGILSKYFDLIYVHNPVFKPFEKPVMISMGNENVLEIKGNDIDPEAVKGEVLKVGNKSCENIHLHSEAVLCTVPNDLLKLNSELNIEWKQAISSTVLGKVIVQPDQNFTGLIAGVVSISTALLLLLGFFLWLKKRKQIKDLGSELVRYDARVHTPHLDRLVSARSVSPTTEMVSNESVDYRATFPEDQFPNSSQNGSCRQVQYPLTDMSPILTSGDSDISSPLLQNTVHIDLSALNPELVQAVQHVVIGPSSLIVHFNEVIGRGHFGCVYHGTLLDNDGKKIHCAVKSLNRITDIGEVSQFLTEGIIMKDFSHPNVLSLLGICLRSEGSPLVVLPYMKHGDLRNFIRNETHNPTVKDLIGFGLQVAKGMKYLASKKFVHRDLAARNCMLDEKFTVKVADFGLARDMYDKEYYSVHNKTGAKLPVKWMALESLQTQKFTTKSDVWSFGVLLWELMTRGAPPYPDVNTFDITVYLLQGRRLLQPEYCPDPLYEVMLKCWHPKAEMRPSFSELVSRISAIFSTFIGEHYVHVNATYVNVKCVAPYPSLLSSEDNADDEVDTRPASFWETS

Results are given in words; binding and its absence hold for the method and conditions named. Binding seen in cells or lysates may run through a third protein. Some binding calls cover weakened binding; strength is not graded here. For some assays here: Tags and fused reporters may be left off the sequences shown.

Experiment [1] concerns the target T1, Flag-PFKP (Phosphofructokinase, Platelet Type, labeled with a 3x Flag tag) (UniProt Q01813).
T1 sequence: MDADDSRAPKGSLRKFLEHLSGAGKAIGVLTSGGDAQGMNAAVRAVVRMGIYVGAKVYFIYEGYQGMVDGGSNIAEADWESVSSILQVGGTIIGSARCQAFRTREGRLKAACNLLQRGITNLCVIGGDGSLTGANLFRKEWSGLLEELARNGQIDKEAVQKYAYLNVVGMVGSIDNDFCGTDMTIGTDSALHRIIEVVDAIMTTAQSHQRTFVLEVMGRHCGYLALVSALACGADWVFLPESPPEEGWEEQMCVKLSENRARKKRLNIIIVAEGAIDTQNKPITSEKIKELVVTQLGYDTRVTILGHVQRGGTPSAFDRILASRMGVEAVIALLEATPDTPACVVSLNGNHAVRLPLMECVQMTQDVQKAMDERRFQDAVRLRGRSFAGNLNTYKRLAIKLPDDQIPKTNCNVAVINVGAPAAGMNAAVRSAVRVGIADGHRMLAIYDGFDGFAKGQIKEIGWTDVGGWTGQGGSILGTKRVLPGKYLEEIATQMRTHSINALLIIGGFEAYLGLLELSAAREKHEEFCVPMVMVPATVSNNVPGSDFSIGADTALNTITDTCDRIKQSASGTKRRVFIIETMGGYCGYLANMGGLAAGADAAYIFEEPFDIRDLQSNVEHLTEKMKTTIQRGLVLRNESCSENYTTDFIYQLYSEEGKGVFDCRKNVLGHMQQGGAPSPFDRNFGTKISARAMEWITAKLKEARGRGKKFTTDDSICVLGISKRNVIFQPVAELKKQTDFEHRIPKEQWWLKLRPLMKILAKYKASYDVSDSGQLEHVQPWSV
Kind of experiment: co-IP; anti-Flag magnetic beads on lysate of H1299 cells transfected with Flag-PFKP; Western blot.

For experiment [2], the target named is T2, endogenous PFKP (Phosphofructokinase, Platelet Type) (human (endogenous in H1299)) (UniProt Q01813).
T2 sequence: T1 sequence
Put plainly: co-IP; anti-PFKP antibody on lysate of H1299 cells without Flag-PFKP transfection; Western blot. For orientation: A western blot detects proteins with antibodies after separation by electrophoresis.

The target in experiment [3] is tyrosine-protein kinase receptor UFO (AXL) (human (endogenous in H1299)) (UniProt P30530). Kind of experiment: co-IP; AXL (C89E7) antibody added to the lysate overnight, then magnetic beads; H1299 cells with Flag-PFKP or without Flag-PFKP; Western blot.

Regarding “MET (MET proto-oncogene, Receptor Tyrosine Kinase) (from UniProt P08581 25-1390)”, the binding result in experiment [1] is on record as “no binding”.

With “tyrosine-protein kinase receptor UFO (AXL) (from UniProt P30530 26-894)”, the binding result in experiment [1] and in experiment [2] was “binds” each time.

B1: Flag-PFKP (Phosphofructokinase, Platelet Type, labeled with a 3x Flag tag) (enzyme, UniProt Q01813 1-784)
chain: T1 sequence
Take B1: the binding entry in experiment [3] is reported as “binds”.

B2: endogenous PFKP (Phosphofructokinase, Platelet Type) (enzyme, UniProt Q01813 1-784)
chain: T1 sequence
As to B2, in experiment [3], the binding entry is “binds”.
